By IC50 is meant the dose at which the fit gives 50% viability; where the fit passes the top or lowest dose, that dose stands as a limit. AUC is the area under the same curve over the 256-fold range up to the top dose, as a fraction; values near 1 show little effect. Drugs with an entry number were screened twice under separate entries, and the two screens often disagree. Bounds are passed on as bounds.

Compound in the assay: CS(=O)(=O)N1CCN(Cc2cc3nc(-c4cccc5[nH]ncc45)nc(N4CCOCC4)c3s2)CC1 [GDC0941]
The assay is described as follows: Viability of human cancer cell lines after 72 h of drug (GDSC screen). The settings on record: screen: GDSC drug entry 1058. As to the method: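 Human cancer cell lines in 384-well plates, medium with 10% serum, drug for 72 h over a 256-fold dose range (nine 2-fold or five 4-fold steps up to the top dose). Adherent lines were fixed and stained with the nucleic acid dye Syto60, suspension lines read with resazurin; signal relative to control wells, capped at 0 and 100%. One two-parameter sigmoid per drug and line, fitted in a mixed model over all curves with the slope shared within a line.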
For the cell line “KNS-42 (glioma, adherent, top dose 4 µM)”, the AUC came to 0.975 and the IC50 (as a rule, the midpoint of a concentration-inhibition curve) was more than 4 µM.
Turning to “KNS-62 (lung squamous cell carcinoma, adherent, top dose 4 µM)”, the AUC amounted to 0.812 and the IC50 is 3.5 µM.
Consider “KNS-81-FD (glioma, adherent, top dose 4 µM)”, for which the AUC turned out to be 0.924 and the IC50 is more than 4 µM.
Taken in the same sequence, the figures for “KON (head and neck, adherent, top dose 4 µM)” were 0.704 and 0.926 µM.
Taken in the same sequence, the figures for “KOPN-8 (B-cell leukaemia, suspension, top dose 4 µM)” were 0.849 and 2.37 µM.
Regarding “KP-1N (pancreas, adherent, top dose 4 µM)”, the AUC was 0.9 and the IC50 is more than 4 µM.
Turning to “KP-2 (pancreas, adherent, top dose 4 µM)”, the AUC came to 0.792 and the IC50 is 1.97 µM.
The corresponding values for “KP-3 (pancreas, adherent, top dose 4 µM)” are 0.875 and more than 4 µM.
The corresponding values for “KP-N-YN (neuroblastoma, adherent, top dose 4 µM)” are 0.977 and more than 4 µM.
Regarding KS-1 (glioma, adherent, top dose 4 µM), the AUC turned out to be 0.72 and the IC50 amounted to 1.24 µM.
In the case of “KU812 (chronic myeloid leukaemia, suspension, top dose 4 µM)”, the AUC was determined as 0.883 and the IC50 came to 3.63 µM.
Consider “KU-19-19 (bladder, adherent, top dose 4 µM)”, for which the AUC was found to be 0.62 and the IC50 turned out to be 0.534 µM.
As for “KY821 (leukaemia, suspension, top dose 4 µM)”, the AUC stood at 0.469 and the IC50 amounted to 0.208 µM.
The corresponding values for “KYAE-1 (oesophagus, suspension, top dose 4 µM)” are 0.521 and 0.286 µM.
Taken in the same sequence, the figures for “KYM-1 (rhabdomyosarcoma, adherent, top dose 2 µM)” were 0.937 and more than 2 µM.
Taken in the same sequence, the figures for “KYSE-50 (oesophagus, adherent, top dose 4 µM)” were 0.969 and more than 4 µM.
For “KYSE-140 (oesophagus, adherent, top dose 4 µM)”, the AUC amounted to 0.892 and the IC50 is more than 4 µM.
On to “KYSE-150 (oesophagus, adherent, top dose 4 µM)”, for which the AUC was 0.888 and the IC50 is more than 4 µM.
Taken in the same sequence, the figures for “KYSE-220 (oesophagus, adherent, top dose 4 µM)” were 0.974 and more than 4 µM.
Taken in the same sequence, the figures for “KYSE-410 (oesophagus, adherent, top dose 4 µM)” were 0.722 and 1.12 µM.
Taken in the same sequence, the figures for “KYSE-450 (oesophagus, adherent, top dose 4 µM)” were 0.788 and 1.65 µM.
Regarding “KYSE-510 (oesophagus, adherent, top dose 4 µM)”, the AUC was determined as 0.9 and the 50% inhibitory concentration (IC50) is 3.59 µM.
The corresponding values for “KYSE-520 (oesophagus, adherent, top dose 4 µM)” are 0.818 and 3.34 µM.
Consider “L-428 (Hodgkin lymphoma, suspension, top dose 4 µM)”, for which the AUC amounted to 0.982 and the IC50 was more than 4 µM.
The corresponding values for “L-540 (Hodgkin lymphoma, suspension, top dose 4 µM)” are 0.983 and more than 4 µM.
The corresponding values for “L-1236 (Hodgkin lymphoma, suspension, top dose 4 µM)” are 0.702 and 0.834 µM.
Consider “LAMA-84 (chronic myeloid leukaemia, suspension, top dose 4 µM)”, for which the AUC was found to be 0.865 and the IC50 was 3.63 µM.
Taken in the same sequence, the figures for “LAN-6 (neuroblastoma, adherent, top dose 4 µM)” were 0.934 and more than 4 µM.
The corresponding values for “LB373-MEL-D (melanoma, adherent, top dose 4 µM)” are 0.939 and more than 4 µM.
Taken in the same sequence, the figures for “LB647-SCLC (small cell lung carcinoma, semi-adherent, top dose 4 µM)” were 0.891 and more than 4 µM.
For the cell line “LB771-HNC (head and neck, adherent, top dose 4 µM)”, the AUC turned out to be 0.922 and the IC50 is more than 4 µM.
On to “LB831-BLC (bladder, adherent, top dose 4 µM)”, for which the AUC stood at 0.907 and the IC50 is more than 4 µM.
The corresponding values for “LB996-RCC (kidney, adherent, top dose 2 µM)” are 0.804 and 1.2 µM.
As for “LB1047-RCC (kidney, adherent, top dose 4 µM)”, the AUC came to 0.615 and the IC50 came to 0.541 µM.
As for “LB2518-MEL (melanoma, adherent, top dose 4 µM)”, the AUC is 0.886 and the IC50 was more than 4 µM.
Taken in the same sequence, the figures for “LC4-1 (lymphoblastic leukaemia, suspension, top dose 4 µM)” were 0.971 and more than 4 µM.
In the case of “LC-1-sq (lung squamous cell carcinoma, adherent, top dose 4 µM)”, the AUC came to 0.885 and the IC50 was more than 4 µM.
On to “LC-2-ad (lung adenocarcinoma, adherent, top dose 2 µM)”, for which the AUC is 0.896 and the IC50 is more than 2 µM.
Taken in the same sequence, the figures for “LCLC-97TM1 (large cell lung carcinoma, adherent, top dose 4 µM)” were 0.783 and 1.85 µM.
The corresponding values for “LCLC-103H (large cell lung carcinoma, adherent, top dose 2 µM)” are 0.961 and more than 2 µM.
With “LK-2 (lung squamous cell carcinoma, adherent, top dose 4 µM)”, the AUC came to 0.971 and the IC50 was more than 4 µM.
Taken in the same sequence, the figures for LN-18 (glioma, adherent, top dose 4 µM) were 0.929 and more than 4 µM.
Consider “LN-229 (glioma, adherent, top dose 4 µM)”, for which the AUC was found to be 0.983 and the IC50 is more than 4 µM.
Taken in the same sequence, the figures for “LN-405 (glioma, adherent, top dose 4 µM)” were 0.789 and 2.28 µM.
Consider “LNZTA3WT4 (glioma, adherent, top dose 4 µM)”, for which the AUC turned out to be 0.951 and the IC50 is more than 4 µM.
Regarding “LOU-NH91 (lung squamous cell carcinoma, adherent, top dose 4 µM)”, the AUC is 0.859 and the IC50 is 3.82 µM.
For “LOUCY (T-cell lymphoblastic leukaemia, suspension, top dose 4 µM)”, the AUC turned out to be 0.828 and the IC50 is 1.87 µM.
The corresponding values for “LOXIMVI (melanoma, semi-adherent, top dose 4 µM)” are 0.806 and 1.77 µM.
For the cell line “LS-180 (large intestine, adherent, top dose 4 µM)”, the AUC amounted to 0.91 and the IC50 was more than 4 µM.

(Values after the supplement of paper PMC4967469.)
